Among all 150,000 compounds or so, about 540 (0.36%) showed an effect of 50% or more. This is one part of the list. Residues, ends and D or L forms follow the SMILES beside them. *: point of attachment. Propionyl = CCC(=O)*
Tested on: Plasmodium falciparum
Experiment: Primary screen in NF54 nanoGlo assay, in single point, at 2uM, 72h; a lower Z score goes with more inhibition
Format: functional, Erythrocyte
Details: timepoint 72 hour

SMILES	% Inhibition	Z score
CO[C@@H]1C[C@H](CNc2ccncc2C#N)N(c2cc(N(C)C)ncn2)C1	-7%	1.36
Nc1nccnc1C(=O)Nc1ccc(-c2cnco2)cc1	-16%	3.42
N#Cc1cc(NC2CCN(Cc3cccnc3)CC2)nc2ccc(Cl)cc12	23%	-3.97
c1cncc([C@H](CNc2ncnc3cc[nH]c23)N2CCCCC2)c1	-4%	0.73
CCCN(Cc1ccc(C#N)cc1)S(=O)(=O)Cc1noc(C)n1	5%	-0.84
Cc1cc(C(F)(F)F)nc(CCNC(=O)NC[C@H]2CNCCO2)n1	-9%	1.31
CCOC1CC(C(=O)N2CCOC[C@@H]2CNC(=O)c2cncs2)C1 (some centres not stated)	0%	0.08
Cc1ocnc1CNC[C@H](O)c1ccc(Cl)c(Cl)c1	94%	-18.67
CCC(C)(C)OC1CN(S(=O)(=O)c2c(C)oc(C)c2C(=O)O)C1	-5%	0.74
CCc1nsc(N2C[C@H](COCC(=O)N(C)C)OC(C)(C)C2)n1	-11%	2
Oc1nc2ccccc2cc1CNCCNc1ncccc1C(F)(F)F	5%	-0.74
CCN(CC)c1ccc(Nc2cc(C)ncn2)cc1	-10%	1.69
CC1CCCCN1C(=O)CN1CCN(CCC2CCCN(C(=O)OC(C)(C)C)C2)CC1 (configuration not stated)	-1%	0.22
Cc1nc(C(C)(C)NCc2ncnn2CC(C)C)no1	-8%	1.49
CN(C)Cc1cc(NCc2csc3ccc(Cl)cc23)ncn1	3%	-0.51
C[C@H]1CC(=O)N(Cc2ccc(Br)c3cccnc23)C1=O	-5%	1
C[C@H]1C(=O)N(C)CCN1C(=O)c1cccc(-c2ccc3c(ccn3C)c2)c1	1%	-0.27
c1ccc(Oc2cccc3[nH]ccc23)cc1	-3%	0.68
CNS(=O)(=O)c1cc(-c2cc3c(cc2CO)OCCO3)ccc1C	-5%	0.94
Cc1cccc2[nH]c(CN(C)C(=O)[C@H]3CCCN(C4CCN(C)CC4)C3)nc12	4%	-0.74
Cn1cc(O[C@@H]2CCC[C@@H]2NC2CCN(c3ccncc3)CC2)cn1	10%	-1.58

SMILES	% Inhibition	Z score
COc1ccc(Nc2ccccc2C(=O)NCCN2CCS(=O)(=O)CC2)cc1	3%	-0.51
Cc1nn(CCNC(=O)N2CCC(c3nc(C(C)C)no3)CC2)c(C)c1C	2%	-0.4
c1ccc2c(CN3CC(n4c(C5CC5)nc5ccccc54)C3)ccnc2c1	0%	-0.03
C[C@]1(CCc2ccccc2)CCN(Cc2ncccc2C(=O)O)C1	0%	0.09
CNc1ncc(-c2cc(C(=O)N3CCN(C)C(=O)[C@@H]3C)c3ccc(F)cc3n2)cn1	-4%	0.62
CCOc1cccc2cc(C(=O)Nc3ccccc3-c3nc4ccccc4[nH]3)oc12	-7%	1.12
O=C(c1ccnc2ccccc12)N(Cc1cc2ccccc2o1)Cc1ccccc1-c1ccccc1	-1%	0.16
CCC(=O)NCC(=O)N[C@@H](C)C(=O)NC (Propionyl-Gly-Ala-NHMe)	-9%	1.55
CNC(=O)[C@H](Cc1c[nH]c2ccccc12)NC(=O)Nc1cccc2cnccc12	-3%	0.55
CCn1ccnc(N2CCC(NCc3cc(-c4ccccc4)ccc3OC)CC2)c1=O	1%	-0.25
Cn1nc(CNc2nc(N)nc3c2CCNCC3)c2c(Cl)cccc21	4%	-0.65
c1ccc(-c2ncn(Cc3cc(C4CC4)[nH]n3)c2-c2ccoc2)cc1	-2%	0.35
CN(C(=O)C[C@H](n1cccn1)C(F)(F)F)c1ncc(Br)cn1	9%	-2.02
CCCCc1nc(CNCCCc2nc3cc(Cl)ccc3[nH]2)c[nH]1	0%	-0.03
c1ccc(-c2nc(N3CCC(c4ncc[nH]4)CC3)c3ccccc3n2)cc1	4%	-0.96
CN1CCN(C2CN(C(=O)Nc3cccc(-c4c[nH]cn4)c3)CC2O)CC1 (configuration not stated)	-12%	2.11
OCCOCCCNc1ncc(Cl)c(NCCCOCCO)n1	7%	-1.37
C[C@H]1CN(c2ccc(CNCc3nc(-c4cnn(C)c4)cs3)cn2)CCO1	-8%	1.76
COc1ccc2cc([C@@H]3CN(c4ncnc5[nH]cnc45)CCO3)ccc2c1	2%	-0.24
FC(F)(F)CN1CCC(CNc2ncnc3ccncc23)CC1	-7%	1.54
CCNC(=O)c1cc(=O)c2cc(Br)ccc2[nH]1	-3%	0.41

SMILES	% Inhibition	Z score
O=C(Nc1cccc(-n2cccn2)c1)[C@H]1CCCN(C2CCN(Cc3ccco3)CC2)C1	-1%	0.12
O=C1C[C@H](c2ccc(C(F)(F)F)cc2)c2c(Nc3ccccc3)n[nH]c2N1	10%	-1.73
Clc1ccc(-c2nc(COc3ccc4ncccc4c3)co2)cc1	3%	-0.61
CCn1cc(CN2CCN(C(=O)c3cc(-c4ccc(OC(F)F)cc4)[nH]n3)CC2)c(C)n1	6%	-0.97
CCOc1ccc(Nc2nc(-c3cn4ncc(-c5ccccc5)c4nc3C)ns2)cc1	-4%	0.75
NC(=O)CN1CCc2ccc(NC(=O)c3cc(-c4ccc(F)cc4)[nH]n3)cc2C1	-9%	1.7
C[C@H]1C[C@@H](c2nc(-c3ccnc(OCCN(C)C)c3)no2)CCN1C	2%	-0.3
COC[C@@H](O)CNC(c1cc(F)c(F)c(F)c1)c1cc(F)c(F)c(F)c1	3%	-0.53
O=C(N[C@@H](Cc1ccccc1)CN1CCOCC1)c1cc(F)cc2nc[nH]c12	-1%	0.17
O=C(c1cncc(NCC[C@H]2CCCCN2C2CCCC2)n1)N1CCOCC1	-4%	0.71
COc1cc2c(cc1CN(C)Cc1ccnc3ccccc13)OCO2	-5%	1.09
O=C(Nc1ccccc1Cl)c1ccccc1Nc1ncc(-c2ccc(Cl)cc2)s1	-10%	1.58
COc1cnc(CN2CC3CN(C4CCCC4)CC3(C(=O)O)C2)cc1O (configuration not stated)	3%	-0.47
COc1ccc(-c2cccc(C(=O)N3CCNCC3)c2)cc1C(F)(F)F	-6%	1.34
CCN1CCN([C@H]2CCN(c3ccnc4ccncc34)C2)CC1	96%	-14.59
Cc1cc(N2CCC[C@H](Nc3ncnc4cc(Cl)ccc34)C2)n(C)n1	-20%	3.45
CCc1noc(CCN[C@@H](C)CS(C)(=O)=O)n1	-1%	0.12
FC(F)(F)Cn1cnc([C@@H]2COCCN2c2ncnc3sc(-c4ccccc4)cc23)n1	-14%	2.09
Cc1cc(=O)n(CCN2CCN(C(=O)c3ccc[nH]3)CC2)c(=O)[nH]1	-9%	1.92
CN(CC(=O)N[C@H]1CCCN(c2cnccn2)C1)C1CCNCC1	-7%	1.05
Nc1nccc(C2CCN(c3ncnc4cc(F)ccc34)CC2)n1	-8%	1.69

SMILES	% Inhibition	Z score
Cc1cnccc1NCCNC(=O)[C@]1(C)CCc2c(C)c(O)c(C)c(C)c2O1	1%	-0.24
O=C(CN1CCN(c2ncnc3sccc23)CC1)N1CCN(Cc2c(F)cccc2Cl)CC1	-9%	1.33
Cc1sc2ncnc(Nc3cccc(C(F)(F)F)c3)c2c1-c1ccc(Cl)cc1	-9%	1.35
CC1(NC(=O)Nc2ccnc(OCC(F)(F)F)c2)CCOCC1	-9%	1.42
COc1ccccc1Nc1nn(CN(CCN(C)C)Cc2ccc(C#N)cc2)c(=S)s1	-10%	1.64
COC1CS(=O)(=O)CC1NC(C)c1nccc2ccccc12 (configuration not stated)	1%	-0.21
Cc1cc2c(N3CC(Nc4nc(C)nc(C)c4F)C3)nccn2n1	-2%	0.52
CN(Cc1cn(CC(N)=O)c2ccccc12)CC1CCN(CCc2ccc(F)cc2)CC1	27%	-4.71
Cn1cc(-c2cc(CN3CC[C@H](CNc4ccccn4)C3)on2)cn1	8%	-1.68
c1ccc(-c2ncn(CC3CCNCC3)c2-c2ccc(-c3ccn[nH]3)o2)cc1	4%	-0.59
OC1(c2cccc(OC(F)(F)F)c2)CCN(Cc2ccc3cn[nH]c3c2)CC1	-2%	0.38
O[C@@H](CNCc1csc(-c2cccs2)n1)c1cccc(F)c1	7%	-1.05
c1cc(OCCN2CCOCC2)ccc1CN1CCCN(C2CCCC2)CC1	2%	-0.35
Fc1cccc(Cl)c1CCNC1CCN(CC2CC2)CC1	-2%	0.36
Cc1ccc(-c2cc(C(=O)NC3CCN(C4CCN(C)CC4)CC3)n[nH]2)cc1C	95%	-16.77
Cn1c(N2CC[C@H](Oc3ccccc3Cl)C2)cc(=O)n(C)c1=O	-2%	0.31
O=C(NCCn1cccn1)c1ccc(-c2cccc(N3CCNCC3)c2)cc1	1%	-0.21
CN[C@H](C(=O)N[C@H]1C[C@@](O)(C(=O)N[C@H](Cc2c[nH]c3ccccc23)C(N)=O)C[C@@H](O)[C@@H]1O)C(C)C	-9%	1.29
